# Measurements as given in PMC4336329 (PLoS ONE, 2015).
# Screen size: about 310,000 compounds; about 14,000 (4.5%) showed an effect of 50% or more. Effects have a minus sign here. The list shows a part of the results.
# Target: human ether-à-go-go-related gene (hERG) potassium channel (human, UniProt Q12809)
# Assay: primary screen, population patch clamp on CHO cells stably expressing hERG
# 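Also: peak tail current of the secondary pulse compared with the same well before compound.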
# Chain of human ether-à-go-go-related gene (hERG) potassium channel (Q12809 whole entry, looked up): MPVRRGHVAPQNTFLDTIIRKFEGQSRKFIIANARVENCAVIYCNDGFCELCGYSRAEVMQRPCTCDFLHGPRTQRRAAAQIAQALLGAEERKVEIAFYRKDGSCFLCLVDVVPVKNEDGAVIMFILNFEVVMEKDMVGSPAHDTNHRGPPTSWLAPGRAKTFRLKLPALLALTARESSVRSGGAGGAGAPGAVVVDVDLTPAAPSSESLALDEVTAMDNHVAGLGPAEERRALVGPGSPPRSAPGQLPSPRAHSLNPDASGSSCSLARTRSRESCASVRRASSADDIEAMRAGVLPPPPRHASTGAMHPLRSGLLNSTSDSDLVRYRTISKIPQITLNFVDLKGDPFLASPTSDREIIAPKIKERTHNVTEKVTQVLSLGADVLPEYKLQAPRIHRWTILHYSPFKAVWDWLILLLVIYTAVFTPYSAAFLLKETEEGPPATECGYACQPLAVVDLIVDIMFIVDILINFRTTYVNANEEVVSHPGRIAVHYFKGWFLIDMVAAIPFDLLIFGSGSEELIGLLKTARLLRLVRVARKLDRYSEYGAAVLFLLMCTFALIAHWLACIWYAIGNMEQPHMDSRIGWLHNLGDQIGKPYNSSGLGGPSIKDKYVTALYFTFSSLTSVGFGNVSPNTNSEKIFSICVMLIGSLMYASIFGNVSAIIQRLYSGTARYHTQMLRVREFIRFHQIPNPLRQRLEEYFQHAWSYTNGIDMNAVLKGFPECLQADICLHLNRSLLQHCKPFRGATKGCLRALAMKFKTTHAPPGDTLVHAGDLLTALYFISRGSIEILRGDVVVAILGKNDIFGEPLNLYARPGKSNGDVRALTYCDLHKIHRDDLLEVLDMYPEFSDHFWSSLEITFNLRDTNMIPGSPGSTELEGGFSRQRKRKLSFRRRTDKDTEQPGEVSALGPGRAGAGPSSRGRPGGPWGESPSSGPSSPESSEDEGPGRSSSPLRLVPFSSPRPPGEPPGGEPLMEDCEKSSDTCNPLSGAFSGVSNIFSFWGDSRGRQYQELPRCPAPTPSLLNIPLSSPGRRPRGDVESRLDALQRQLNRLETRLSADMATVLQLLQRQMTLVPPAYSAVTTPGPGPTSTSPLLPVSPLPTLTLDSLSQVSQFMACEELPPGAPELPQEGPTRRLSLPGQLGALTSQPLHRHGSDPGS
row,Structure (SMILES),"hERG current change (%, negative = inhibition) at 10uM"
1,O=C(NCc1cccnc1)c1ccc(-c2ccc(Cl)cc2)o1,-37.1%
2,S=C(Nc1ccc2nsnc2c1)N1CCCCCC1,9.02%
3,NCCCC[C@H]1CN=C(N)N1CC1CCCCC1,21.9%
4,CC(C)c1ccccc1OCC(O)CN(CC(O)COc1cccc2ccccc12)C(C)C (centres unmarked),0.448%
5,NC(=O)CN1C2CCC1CC(NC(=O)C1CC1)C2 (centres unmarked),14.7%
6,CCOC(=O)Cn1cnc2c(sc3nc(C)cc(C)c32)c1=O,4.82%
7,O=S(=O)(NCCS(=O)(=O)N1CCN(c2ccccc2)CC1)c1ccccc1,13.7%
8,O=C(CCC1CCCN(C2C3CC4CC(C3)CC2C4)C1)NCc1ccc(F)c(F)c1 (centres unmarked),-33.5%
9,CCOc1ccc(-c2nnc3ccc(SC(C)C)nn23)cc1,-6.89%
10,Cc1cc(SCC(=O)NC(=O)NCc2ccco2)nc2ccccc12,-1.42%
11,Cc1ccc(C(=O)N2CCN(c3ncccn3)CC2)cc1NC1=NC2CS(=O)(=O)CC2S1 (centres unmarked),5.37%
12,CC(C)CN(C(=O)COc1cccc(-n2cnnn2)c1)C1CCS(=O)(=O)C1 (centres unmarked),-12.6%
13,NC(=O)c1cc([N+](=O)[O-])ccc1NCc1ccccn1,-73.8%
14,Cc1cccc(CSC(Nc2ccc(F)cc2)=C(C#N)C#N)c1,-2.69%
15,C[C@H](NC(=O)c1[nH]cnc1C(=O)Nc1ccc(Cl)cc1)C(=O)OC(C)(C)C,24.6%
16,CC(C)(C)c1ccc(C(=O)N2CCN(CCNC(=O)C(=O)NCc3ccccc3)CC2)cc1,-57%
17,CC1CCCC(NC(=O)CCC(=O)NCc2ccccc2)C1C (centres unmarked),11.5%
18,COc1cccc(-n2cnnn2)c1,4.13%
19,CC(C)(C)NCC(O)COc1cccc2c1C[C@H](O)[C@H](O)C2 (some centres unmarked),29%
20,Cc1ccc(C)c(NC(=O)c2cc3ccccc3o2)c1,-12.9%
21,O=C(NC(=S)Nc1cccc2cc(O)ccc12)c1ccccc1Br,6.9%
22,CS(=O)(=O)c1ccc(-c2nnc(NC(=O)c3ccc(S(=O)(=O)N4CCCC4)cc3)o2)cc1,-15%
23,O=C1CS(=O)(=O)c2ccccc2N1,22.5%

row,Structure (SMILES),"hERG current change (%, negative = inhibition) at 10uM"
1,CCN1C(=O)C(CC(=O)NCCc2ccccc2)N(NC(=O)c2cccnc2)C1=S (centres unmarked),-21.1%
2,CC(C)(C)c1ccc(C(=O)NNc2cc(N3CCCCC3)nc(N3CCCCC3)n2)cc1,16.5%
3,CC(=O)Nc1ccc(NC(=O)CN(c2cccc(C)c2)S(C)(=O)=O)cc1,-5.23%
4,COc1cccc(C(=O)Nc2ccccc2N2CCOCC2)c1,-29.5%
5,CCn1nc(C)cc1C(=O)Sc1cccc(Cl)c1,13.3%
6,CCOC(=O)c1sc(NC(=O)CSc2nncn2C)nc1C,9.68%
7,COc1ccccc1-c1cnnc(N/N=C/c2ccc(-c3cccc(Br)c3)o2)n1,12%
8,CSCCC(NC(=O)c1ccccc1)C(=O)NC1CCCC1 (centres unmarked),-3.79%
9,Cc1n[nH]c(C)c1S(=O)(=O)N(CC(=O)NC1CCCC1)c1ccc(C(C)C)cc1,12%
10,COc1ccc(/C=C2/C(=O)N(c3cccc(F)c3)N=C2C)c(OC)c1,13.4%
11,COc1ccc(/C=C/c2cccc[n+]2C)c(O)c1.[I-],31.5%
12,Cc1ccc(-c2nn(-c3ccccc3)cc2C=O)o1,-22.5%
13,Cc1cc(C)cc(NC(=O)NCc2nnc(SCc3ccccc3)n2C)c1,3.34%
14,O=C(c1cc(=O)[nH]c2ccccc12)N1CCN(c2ccc([N+](=O)[O-])cc2)CC1,-65.1%
15,CCOC(=O)C1(CC2CCCCO2)CCN(Cc2cc(F)ccc2-n2cccn2)CC1 (centres unmarked),-57.1%
16,COc1ccc(N2C(=O)CCC(C(=O)NCCCN3CCC(C)CC3)C2c2ccc(OC)c(OC)c2)cc1 (centres unmarked),5.44%
17,CCc1ccc(NC(=O)C/C(C)=N/NC(=O)COc2ccccc2C)cc1,-53.2%
18,Cc1ccc(C)c(N2CCN(C(=O)c3csc4ccccc34)CC2)c1,-12.9%
19,Cc1c(C)c2c(C)nn(-c3ccccc3)c2[nH]c1=O,16.8%
20,CCOC(=O)Nc1ccc2c(CN(C)Cc3ccc(F)cc3)cc(=O)oc2c1,8.06%
21,COc1ccccc1N1CCN(C(=O)c2cc(C3CC3)on2)CC1,-24%
22,Cc1c(C)c2ccc(OCC(=O)N3CCC[C@@H]3C(=O)O)c(C)c2oc1=O,17.1%
23,O=S(=O)(NCc1cn2ccccc2n1)c1cc(F)ccc1F,8.31%

row,Structure (SMILES),"hERG current change (%, negative = inhibition) at 10uM"
1,O=C(COc1ccc([N+](=O)[O-])cc1)NNC(=O)Nc1cccc(F)c1,-11.3%
2,COc1cc(/C=C(\C#N)C(=O)Nc2ccccc2)ccc1OCCN1CCOCC1,-21.7%
3,Cc1ccc(NC(=O)c2ccccc2NS(=O)(=O)c2ccc(Cl)s2)cc1S(=O)(=O)N1CCOCC1,0.321%
4,COc1cccc(C(=O)Nc2nc(C)cs2)c1,-7.15%
5,Cc1ccc(C(=O)C2=C(O)C(=O)N(Cc3cccnc3)C2c2ccc(Cl)cc2)o1 (centres unmarked),20%
6,CCCn1c(SCC(=O)NC)nnc1C(C)C,16.7%
7,N#Cc1ccc(CSc2nnc(-c3cccnc3)n2-c2ccccc2)cc1,-71.2%
8,CCOC(=O)c1nn(-c2ccc(C)c(C)c2)c(=O)c2c(N)scc12,-4.22%
9,O=C(CSc1nc(SCC(=O)NCc2ccccc2)n(-c2ccccc2)n1)NCc1ccccc1,-25.6%
10,O=C1NCCN(Cc2c(F)cccc2Cl)C1CC(=O)N1CCCO1 (centres unmarked),25.1%
11,CSc1nnc(-c2cccc(C)c2)n1N,7.87%
12,N/C(=N\OC(=O)CCC(=O)O)c1ncc(C(F)(F)F)cc1Cl,19.2%
13,O=C(Nc1cc(Cl)ccc1Cl)Nn1cnnc1,11.5%
14,O=C(CCCn1c(=O)[nH]c2ccsc2c1=O)N1CCN(c2ccccn2)CC1,5.57%
15,COc1cc(OC)c(C(=O)Nc2ccc(C(=O)c3ccccc3)cc2)cc1OC,11.7%
16,Cc1cccc(OCC(=O)NNC(=O)c2cccs2)c1,6.4%
17,CCCCNC(=O)c1ccccc1NC(=O)CCC,7.1%
18,CCOC(=O)c1c(NS(C)(=O)=O)sc2c1CCC(C)C2 (centres unmarked),6.1%
19,CC(C)CC(NC(=O)c1ccc(C#CC(C)(C)O)s1)C(=O)O (centres unmarked),18.7%
20,O=C(CCC1CCN(C(=O)c2cccc(Cl)c2F)CC1)Nc1ccccc1,-31.6%
21,COc1ccccc1N1CCN(S(=O)(=O)c2cc(-c3cc(C)no3)ccc2C(C)C)CC1,16.1%
22,CCOc1ccc(NC(=O)CCNC(=O)N2C[C@H]3C[C@@H](C2)c2cccc(=O)n2C3)cc1,12.2%
23,CC(=O)c1ccccc1OCCn1nnc(-c2ccc(C)cc2)n1,-13.7%

row,Structure (SMILES),"hERG current change (%, negative = inhibition) at 10uM"
1,CCOc1ccc(N2C(=O)CC(N3CCc4ccccc43)C2=O)cc1 (centres unmarked),-3.24%
2,COc1ccc(S(=O)(=O)N(CC(=O)NCc2ccccn2)Cc2ccccc2)cc1,-15.7%
3,COc1cccc(C(=O)CSc2nnc(-c3ccco3)n2CC2CCCO2)c1 (centres unmarked),-32.3%
4,Cc1cccn2c(=O)c3cc(S(=O)(=O)c4ccccc4)c(=N)n(Cc4cccnc4)c3nc12,-66.1%
5,COc1ccc(S(=O)(=O)NCCCN2CCOCC2)cc1F,10.9%
6,O=C(N=Nc1c(O)[nH]c2ccccc12)c1ccc2c(c1)OCO2,6.09%
7,CC(C)(C)NC(=O)N1CCN(S(=O)(=O)c2ccc3c(c2)CCC3)CC1,11.9%
8,COc1ccc(OCC(=O)N(Cc2ccc(C)o2)C2CCS(=O)(=O)C2)cc1 (centres unmarked),-19.5%
9,COc1ccccc1C1CC(=O)NC(C)=C1C(=O)OCC1CCCO1 (centres unmarked),5.35%
10,CCOC(=O)N1CCN(S(=O)(=O)c2ccc(C(=O)NNc3nc4c(C)cccc4s3)cc2)CC1,-2.43%
11,O=C(CSc1nnc(-c2ccc(O)cc2)o1)N1CCOCC1,5.74%
12,CC(C)CNC(=O)C1C2C=CC(C2)C1C(=O)O (centres unmarked),30%
13,Cc1cccc(-c2nc3c(c(SCC(N)=O)n2)CCCC3)c1,-4.49%
14,Cc1ccc(S(=O)(=O)c2cc(Nc3ccccc3)ccc2O)cc1,-0.223%
15,COc1cccc(NC(=O)CN(C)C(=O)CCNC(=O)c2ccc(Br)cc2)c1,-23.8%
16,O=C(Nc1cccnc1)c1ccc(NS(=O)(=O)c2cc([N+](=O)[O-])ccc2Cl)cc1,13.3%
17,O=C(NC1CCCC1)C(c1ccccc1F)N(C(=O)c1ccco1)C1CCCC1 (centres unmarked),-18.3%
18,COCCNC(=O)/C(C#N)=C/c1ccc2c(c1)OCO2,19.1%
19,O=C(NCCSCc1c(F)cccc1Cl)c1ccc(CN2CCOCC2)cc1,-26.9%
20,COc1cc(N)c(Cl)cc1C(=O)OCC(=O)N(C)C1CCCCC1,5.34%
